Test results: a collection of fitness landscapes (doi:10.1126/science.1257360)
The other results are listed elsewhere or left out.

B1: PhoQ; a variant is named by its letters at X, in order, P23837 (parent)
chain: MKKLLRLFFPLSLRVRFLLATAAVVLVLSLAYGMVALIGYSVSFDKTTFRLLRGESNLFYTLAKWENNKLHVELPENIDKQSPTMTLIYDENGQLLWAQRDVPWLMKMIQPDWLKSNGFHEIEADVNDTSLLLSGDHSIQQQLQEVREDDDDAEMTHSVAVNVYPATSRMPKLTIVVVDTIPVELKSSYMVWSWFIYVLSANLLLVIPLLWVAAWWSLRPIEALAKEVRELEEHNRELLNPATTRELTSLVRNLNRLLKSERERYDKYRTTLTDLTHSLKTPLXXLQXXLRSLRSEKMSVSDAEPVMLEQISRISQQIGYYLHRASMRGGTLLSRELHPVAPLLDNLTSALNKVYQRKGVNISLDISPEISFVGEQNDFVEVMGNVLDNACKYCLEFVEISARQTDEHLYIVVEDDGPGIPLSKREVIFDRGQRVDTLRPGQGVGLAVAREITEQYEGKIVAGESMLGGARMEVIFGRQHSAPKDE

Variants of: B1
Assay: enrichment ratio after two sorts for PhoP signalling (ratio (wild type AVST 3.29)); higher = more functional
Conditions: with PhoP (E. coli)

Variant | enrichment ratio
GEVL | 5.34
IGRI | ≤ 0.25
ILMM | ≤ 0.25
NNSE | ≤ 0.25
MFLS | ≤ 0.25
MHGC | ≤ 0.25
MCVK | ≤ 0.25
MSRS | ≤ 0.25
WHYP | ≤ 0.25
IFTT | ≤ 0.25
ERCM | ≤ 0.25
DIVN | ≤ 0.25
SVFR | 0.428
KLFW | ≤ 0.25
RIFQ | ≤ 0.25
LWPK | ≤ 0.25
LWQD | ≤ 0.25
LSNH | ≤ 0.25
WEVM | ≤ 0.25
MDPC | 2.79
QIKP | ≤ 0.25
SAFE | ≤ 0.25
HAER | ≤ 0.25
TNEK | ≤ 0.25

Variant | enrichment ratio
EDLA | ≤ 0.25
VYTC | ≤ 0.25
QSQM | ≤ 0.25
FECP | ≤ 0.25
PIQM | ≤ 0.25
LVMW | ≤ 0.25
EEIP | ≤ 0.25
LHMF | ≤ 0.25
MYSV | 0.337
LMQS | ≤ 0.25
LKDA | ≤ 0.25
LQGL | ≤ 0.25
VEKL | ≤ 0.25
PGIF | ≤ 0.25
WVTF | ≤ 0.25
RLLN | ≤ 0.25
VSPC | ≤ 0.25
IQSR | ≤ 0.25
KCYQ | ≤ 0.25
IATM | ≤ 0.25
YVPH | ≤ 0.25
LQNM | ≤ 0.25
IDEG | ≤ 0.25
DNGR | ≤ 0.25

Variant | enrichment ratio
LYYY | ≤ 0.25
VESP | ≤ 0.25
SVHA | ≤ 0.25
MFWL | ≤ 0.25
WADH | ≤ 0.25
WACW | ≤ 0.25
GSFL | ≤ 0.25
RNVT | ≤ 0.25
EQNQ | ≤ 0.25
TCHC | 9.1
HVQP | ≤ 0.25
QRKA | ≤ 0.25
QDRF | ≤ 0.25
LDPF | ≤ 0.25
WCQY | ≤ 0.25
HCMV | ≤ 0.25
ATKL | ≤ 0.25
FRFS | ≤ 0.25
LCNP | ≤ 0.25
IGLR | ≤ 0.25
DNHS | ≤ 0.25
DLKT | ≤ 0.25
INST | ≤ 0.25
DTWY | ≤ 0.25

Variant | enrichment ratio
SRLR | ≤ 0.25
DNGT | ≤ 0.25
RERP | ≤ 0.25
VFQV | ≤ 0.25
WVNK | ≤ 0.25
DIRP | ≤ 0.25
DVRY | ≤ 0.25
DDAQ | ≤ 0.25
RSWF | ≤ 0.25
QMEF | ≤ 0.25
FPPD | ≤ 0.25
QPCD | ≤ 0.25
EYQS | ≤ 0.25
ILVT | ≤ 0.25
WLCV | ≤ 0.25
MHNH | 3.22
TSTT | 15.1
HWFC | ≤ 0.25
NFPS | ≤ 0.25
YIPA | ≤ 0.25
EHCD | ≤ 0.25
HCGR | ≤ 0.25
YMVW | ≤ 0.25
RIHE | ≤ 0.25

Variant | enrichment ratio
RVMR | ≤ 0.25
GHDC | ≤ 0.25
RFVE | ≤ 0.25
ERWP | ≤ 0.25
QYQF | ≤ 0.25
VQSV | ≤ 0.25
SEIG | 13.1
TAIV | ≤ 0.25
IFFK | ≤ 0.25
HGPG | ≤ 0.25
QTRD | ≤ 0.25
ESKI | ≤ 0.25
YMLH | ≤ 0.25
LQGQ | ≤ 0.25
VLNP | ≤ 0.25
QCNC | ≤ 0.25
TYSV | 0.354
WGII | ≤ 0.25
FMSE | ≤ 0.25
ESFQ | ≤ 0.25
VCGY | 2.11
DAYA | ≤ 0.25
FAMT | ≤ 0.25
LTTE | ≤ 0.25

Variant | enrichment ratio
WTMK | ≤ 0.25
FDEP | ≤ 0.25
NHWI | ≤ 0.25
EYKV | ≤ 0.25
GKCD | ≤ 0.25
VEQM | ≤ 0.25
DRHK | ≤ 0.25
YHWQ | ≤ 0.25
FEHQ | ≤ 0.25
YDIT | ≤ 0.25
HNSA | ≤ 0.25
LSWL | 3.46
WPKM | ≤ 0.25
RFYC | ≤ 0.25
SLFN | ≤ 0.25
PECL | ≤ 0.25
IFQI | ≤ 0.25
EHYP | ≤ 0.25
LRLM | ≤ 0.25
YRNA | ≤ 0.25
RLPS | ≤ 0.25
MGLM | 6.14
FKPV | ≤ 0.25
YGDI | ≤ 0.25

Variant | enrichment ratio
SRKF | ≤ 0.25
KDHR | ≤ 0.25
IWNR | ≤ 0.25
LMLN | ≤ 0.25
VPFN | ≤ 0.25
VKIQ | ≤ 0.25
KRNL | ≤ 0.25
AVYH | 0.253
IQQL | ≤ 0.25
SEQI | 7.02
DFFF | ≤ 0.25
SMSS | 7.62
VYHD | ≤ 0.25
GSIM | 11.6
PGGV | ≤ 0.25
MGTM | 13.6
TRFL | ≤ 0.25
KSEF | ≤ 0.25
TMAP | ≤ 0.25
MQLQ | 5.01
AKYK | ≤ 0.25
ARDA | ≤ 0.25
EFPT | ≤ 0.25
AYKG | ≤ 0.25

Variant | enrichment ratio
QRTS | ≤ 0.25
INQK | ≤ 0.25
GWHT | ≤ 0.25
LLRE | ≤ 0.25
VGSP | ≤ 0.25
EYSN | ≤ 0.25
DKDR | ≤ 0.25
FDTV | ≤ 0.25
VPIW | ≤ 0.25
NPPW | ≤ 0.25
NFRW | ≤ 0.25
LGLE | 0.798
HKAM | ≤ 0.25
DWNA | ≤ 0.25
RIDM | ≤ 0.25
FVHD | ≤ 0.25
FTRF | ≤ 0.25
TGAD | ≤ 0.25
GHDV | ≤ 0.25
EDVD | ≤ 0.25
YATH | ≤ 0.25
VCPM | ≤ 0.25
MNNG | ≤ 0.25
ENGF | ≤ 0.25

Variant | enrichment ratio
LDQD | 0.634
IWDE | ≤ 0.25
NEHC | ≤ 0.25
TSKQ | ≤ 0.25
AVFQ | ≤ 0.25
WEIE | ≤ 0.25
TMKI | ≤ 0.25
NTYR | ≤ 0.25
NHTW | ≤ 0.25
LIRC | ≤ 0.25
EYIA | ≤ 0.25
PDIK | ≤ 0.25
VIAC | ≤ 0.25
IVGM | ≤ 0.25
MTHH | ≤ 0.25
GRVF | ≤ 0.25
WLNI | ≤ 0.25
EQEL | ≤ 0.25
EVKL | ≤ 0.25
PDCT | ≤ 0.25
SQIR | ≤ 0.25
RLTG | ≤ 0.25
SSDM | ≤ 0.25
KAQY | ≤ 0.25

Variant | enrichment ratio
LIFK | ≤ 0.25
AICQ | 3.77
QMTW | ≤ 0.25
RKPR | ≤ 0.25
SFRC | ≤ 0.25
WLWV | ≤ 0.25
MRQW | ≤ 0.25
WPSH | ≤ 0.25
ITDN | ≤ 0.25
ADDV | ≤ 0.25
FLCH | ≤ 0.25
NGQV | ≤ 0.25
NESH | ≤ 0.25
GDMR | ≤ 0.25
DYLR | ≤ 0.25
YGKV | ≤ 0.25
NRVQ | ≤ 0.25
YAEP | ≤ 0.25
IVIP | ≤ 0.25
WPVN | ≤ 0.25
HIMR | ≤ 0.25
GPPI | ≤ 0.25
DINS | ≤ 0.25
FKNE | ≤ 0.25

Variant | enrichment ratio
PNHS | ≤ 0.25
FMDY | ≤ 0.25
VQVC | ≤ 0.25
IKWA | ≤ 0.25
LSHR | ≤ 0.25
FHKT | ≤ 0.25
QVPV | ≤ 0.25
QFLI | ≤ 0.25
ECSH | ≤ 0.25
HECC | 7.31
ECDA | ≤ 0.25
YEIR | ≤ 0.25
MLVM | ≤ 0.25
PHHD | ≤ 0.25
IDDP | ≤ 0.25
VPYF | ≤ 0.25
VLFE | ≤ 0.25
TQDN | ≤ 0.25
CSFN | ≤ 0.25
FWWT | ≤ 0.25
INNE | ≤ 0.25
AYPD | ≤ 0.25
HAFA | ≤ 0.25
HLNP | ≤ 0.25

Variant | enrichment ratio
IACV | 0.419
HWQL | ≤ 0.25
DAGR | ≤ 0.25
HLQL | ≤ 0.25
SHWC | ≤ 0.25
TVKS | ≤ 0.25
ATYL | ≤ 0.25
AAKA | ≤ 0.25
FNYY | ≤ 0.25
TMQY | 0.38
TCES | ≤ 0.25
PDHR | ≤ 0.25
GFDK | ≤ 0.25
HEPF | ≤ 0.25
REIV | ≤ 0.25
FTSN | ≤ 0.25
THPE | ≤ 0.25
ELFK | ≤ 0.25
SGTL | 7.51
WMPN | ≤ 0.25
MKKH | ≤ 0.25
SSKI | ≤ 0.25
WLAY | ≤ 0.25
VHGW | ≤ 0.25

Variant | enrichment ratio
CRFL | ≤ 0.25
PSNF | ≤ 0.25
RTIG | ≤ 0.25
QHLW | ≤ 0.25
MIYF | 24.3
QVQG | ≤ 0.25
LLIM | ≤ 0.25
KRGL | ≤ 0.25
APYD | ≤ 0.25
THKQ | ≤ 0.25
TFEY | ≤ 0.25
VRVC | ≤ 0.25
NRCH | ≤ 0.25
LFRF | ≤ 0.25
HNDY | ≤ 0.25
FNPR | ≤ 0.25
MWCI | ≤ 0.25
GHSM | ≤ 0.25
